# Data from the supplement of paper PMC3334620.
# In all, about 33,000 sequences were measured (“E-score (-0.5 to 0.5)”: median about -0.017, highest 2% from about 0.3 on). The list shows a part of the results.
# Biological target: T1, Sut1 (UniProt P53032)
# T1 sequence: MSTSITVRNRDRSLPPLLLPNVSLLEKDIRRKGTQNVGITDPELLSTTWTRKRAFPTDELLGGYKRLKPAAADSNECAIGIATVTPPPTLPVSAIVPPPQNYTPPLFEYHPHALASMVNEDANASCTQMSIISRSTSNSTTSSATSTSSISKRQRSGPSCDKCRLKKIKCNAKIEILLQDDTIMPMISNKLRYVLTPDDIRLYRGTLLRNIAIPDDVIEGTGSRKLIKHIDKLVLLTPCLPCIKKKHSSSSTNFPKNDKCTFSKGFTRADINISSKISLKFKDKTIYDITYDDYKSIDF
# Assay: PBM E-score (8-mer binding enrichment) (E-score (-0.5 to 0.5)); higher = stronger / more preferred TF binding; most listed sequences are background and not binding sites
# Settings: protein concentration: 200 nM; construct: GST-full length
# Outline: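 Universal all-10-mer Agilent arrays, double-stranded by primer extension on fresh or once-stripped slides, were probed with about 100-200 nM GST-tagged yeast transcription factors made by PURExpress. Fluorescent anti-GST detected bound protein, and masliner normalised the scans. E-scores from the Universal PBM Analysis Suite were given to each ungapped eight-base word pooled with its reverse complement.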
row,Sequence,PBM E-score
1,CTGATTCA,0.0533
2,GACTATCA,0.0525
3,ATCAAAAC,0.156
4,CGTCGATA,-0.153
5,CAGTTGGA,0.0236
6,ACCTCTTA,0.236
7,AAAGGCTC,-0.153
8,TCTCACAA,0.0336
9,AATGAGCT,-0.107
10,ATCGCAAC,-0.00091
11,AATATGCA,0.0736
12,ATCAGACC,-0.163
13,GGAAGTCC,0.159
14,GATGTAGC,-0.249
15,CGGCAAAA,-0.145
16,CACGAGGC,-0.0389
17,CAAGGTAG,-0.0887
18,ACGAGGCA,-0.0734
19,GGGGTCCA,-0.262
20,GCAAAAGC,0.0946
21,CGGTCGTA,-0.114
22,CAGGAGGC,-0.193
23,GCCATCGA,-0.177
24,AACTAAAC,0.139
25,CGCCGGAG,0.391

row,Sequence,PBM E-score
1,CTTCGGTC,0.0562
2,ATCTAAAT,0.207
3,CTTTCGCA,-0.0837
4,ATTCTCGA,0.00271
5,GCTTAGTA,-0.0147
6,CAATTACC,0.264
7,ATCGTGAC,-0.0551
8,AGTGAACG,-0.0586
9,CCATAGTA,0.0275
10,CTGCTACC,-0.0857
11,AAATACGA,0.127
12,ACGCTACC,-0.248
13,ACTCCTTG,0.0763
14,AGCGATTC,-0.166
15,AGAGGCCC,-0.265
16,ATTTTATC,0.321
17,GAGGTTAA,-0.0384
18,GCCAACCC,-0.214
19,CAGGCCCA,-0.282
20,CCTGCGCA,-0.242
21,GCCTAAAA,-0.026
22,ATCGAAAC,-0.0162
23,GTACCAAC,0.0575
24,ACGCTGAC,-0.0605
25,TACATCGA,-0.0994

row,Sequence,PBM E-score
1,ATCGGGTA,-0.141
2,CTTACGCC,0.143
3,AGGAATCC,-0.138
4,CCAGTTCG,-0.0833
5,ACGCGTTG,-0.0307
6,GCTGTTAA,0.0929
7,CAGTGACG,-0.0793
8,CCGTCCTA,-0.121
9,ACAGCTAT,-0.0114
10,CATCGACC,-0.0867
11,ACGGCACT,0.03
12,AAAACTCA,0.155
13,GAATGATA,0.259
14,CGTGTGAG,-0.161
15,GCATTTTA,0.191
16,TATGAAGA,0.178
17,AAGCAATT,0.264
18,AGATGTGA,0.0417
19,CATGTTTA,0.0536
20,ACTTGCTC,-0.0493
21,CATTCACA,-0.00905
22,CTCTTCTC,-0.159
23,CCCAGGCG,-0.0984
24,ACCATAAT,0.198
25,GCACGTTA,-0.0635

row,Sequence,PBM E-score
1,ATCTACTG,-0.0146
2,ACCGACGT,0.0086
3,AAAGACAA,0.223
4,ACCTGTTC,-0.081
5,CACAGTGA,-0.0779
6,AACGGTTC,-0.0755
7,CATGTGGG,-0.0538
8,GTCAGTTA,0.143
9,ACACCATC,-0.185
10,AGCACAAT,-0.11
11,GTAATAAA,0.284
12,CCGGCAAA,0.18
13,ACCTAGTG,0.101
14,CAACTTCC,0.146
15,CACAGCTC,-0.0355
16,AGAGACTA,0.0354
17,GGCACGAC,-0.0913
18,AAGATTGG,0.101
19,AAATTCTG,0.189
20,AATGGGTC,-0.133
21,CACAGATC,0.0252
22,CGTCGTAA,-0.0262
23,CCGATCCC,-0.166
24,AAATGCAG,-0.0343
25,AGTTTGCA,0.00589

row,Sequence,PBM E-score
1,GCGCCATA,-0.171
2,TCTTGCCA,-0.21
3,TCAGGGAA,-0.132
4,CCCCATAA,-0.104
5,CCTATTAG,-0.0106
6,CGCTGGCA,-0.191
7,AGGGATTC,-0.121
8,CAGCATCG,-0.272
9,CCATATGC,-0.0825
10,GCAGGACC,-0.147
11,GCCGGAGC,0.284
12,CCCATTCG,-0.0443
13,GTTTCCGA,0.332
14,CCACTATA,-0.00853
15,AATATGCG,-0.00378
16,AAGCCCTG,-0.241
17,AATTTTGC,0.0464
18,GAAATGAC,0.0699
19,AGAATGCC,0.0192
20,TGGTCGAA,-0.258
21,AGTGAACA,0.0388
22,TAGAAATA,0.12
23,CGCTTTAG,-0.0904
24,GTTGTTGA,0.0996
25,GATTTGTA,0.109

row,Sequence,PBM E-score
1,ACCTGTCC,-0.0505
2,CTGGCCAC,-0.213
3,GATCTATA,0.133
4,AGTTAGCC,0.177
5,CAAACCCG,-0.17
6,ACGGATAG,0.0603
7,GGAACTGA,-0.129
8,CGCTTCTC,-0.05
9,GACTAATA,0.196
10,CCAGAGCC,-0.166
11,ATGTAAGG,-0.015
12,CAGCGTCG,-0.0369
13,ACGGCCGA,-0.0794
14,TTAAGGAA,0.207
15,CTAGATCA,-0.139
16,ACCGTGAG,-0.193
17,AGGAAAGG,-0.294
18,ACACGAAG,0.0687
19,CTTGCTGC,-0.149
20,CGTTCAAC,0.0558
21,GATGCAAC,-0.103
22,AGCTCATC,-0.086
23,AACTCGAA,-0.0516
24,GACGGGCA,-0.28
25,CGCAGTAC,-0.164

row,Sequence,PBM E-score
1,CCTAACAG,-0.0185
2,TCGCCTAA,-0.0306
3,GCTTATTA,0.0467
4,CATGGCTA,0.0513
5,ACGTTATG,0.0828
6,GGACAGAA,-0.00255
7,AAACTAGT,0.0427
8,GATTCCGA,0.337
9,CGCTCTTC,-0.207
10,AAAGATTA,0.306
11,ATGAGCGC,-0.0253
12,AGCCGCGA,-0.0685
13,ATACGAGG,-0.165
14,CGTCGCGC,-0.132
15,GGACGATA,-0.00971
16,CATCCCGC,-0.212
17,ACTCGCCG,0.152
18,GTACACCA,-0.104
19,CAGACTCA,-0.122
20,GACCCGCC,-0.153
21,GCCAATAC,0.0412
22,AATCAGGA,-0.136
